In ChEMBL document CHEMBL4888484, “Replenishing the malaria drug discovery pipeline: Screening and hit evaluation of the MMV Hit Generation Library 1 (HGL1) against asexual blood stage Plasmodium falciparum ,using a nano luciferase reporter read-out” (2022):
Hit rate of the full screen: of about 150,000 compounds, about 540 (0.36%) showed an effect of 50% or more. The list shows a part of the results.

What follows are compounds tested on Plasmodium falciparum (assay: Primary screen in NF54 nanoGlo assay, in single point, at 2uM, 72h; a lower Z score goes with more inhibition). Settings: timepoint 72 hour.
Format: functional, Erythrocyte

Row | SMILES | % Inhibition | Z score
1 | CC1=NN(C2CCS(=O)(=O)C2)C(=O)C1C(=O)Nc1ccccc1 (stereo not given) | -2% | 0.43
2 | COc1ccc(-n2ccnc2-c2cc(C#CCO)cs2)cc1 | -11% | 1.35
3 | Cc1c[nH]c(C(=O)N[C@H]2CCN(Cc3cscn3)C[C@@H]2O)n1 | 12% | -2.22
4 | Nc1nc(-c2ccccc2)[n+](-c2ccccc2)s1 | -10% | 1.48
5 | CC1CCC(NC(=O)c2cnn[nH]2)CC1 (stereo not given) | -9% | 1.8
6 | O=C1C2CCCCC2C(=O)N1CN1CCN(c2ccccn2)CC1 (stereo not given) | -10% | 1.36
7 | CC(=O)N1CC[C@H](CN(C)S(=O)(=O)c2cc(F)c(F)cc2F)C1 | 12% | -1.86
8 | Cc1cccc(C(=O)N2CCC[C@H](c3cc(N4CCOCC4)ncn3)C2)c1 | -1% | 0.09
9 | COc1ccc(OC)c2c1cc(C(=O)Nc1cccnc1)n2C | -16% | 2.02
10 | COCCC1(CNC(=O)c2cc(-n3ccnc3C)ccn2)CCCCC1 | -2% | 0.2
11 | c1ccc(-n2ccc(Cn3ccnn3)n2)cc1 | -9% | 1.33
12 | Cc1ccc(CNC(=O)c2ccon2)c(-n2cc(Cl)cn2)n1 | -2% | 0.16
13 | Oc1ccccc1CCN[C@H]1CCc2ccc(F)cc21 | 98% | -18.88
14 | CN1CC[C@H](CNC(=O)Nc2ccc3c(c2)COC3)c2ccccc21 | 5% | -0.64
15 | O=C1CC[C@H](C(=O)Nc2ccccc2Nc2c(F)cccc2F)N1 | -10% | 1.56
16 | CC[C@H](O)CNCc1cccc(OC)c1F | -1% | 0.26
17 | O=C(NCCc1ccccn1)c1cc2n(n1)CCN(Cc1c(F)cccc1Cl)C2=O | 14% | -1.72
18 | CCN1C[C@@H](CN(C)c2nc(C)nc3c2c(C)nn3C)CC1=O | -2% | 0.24
19 | Cc1cncc(C(=O)NCc2ccnc(OC3CCC3)c2)c1 | -6% | 0.73
20 | COC(=O)c1ccccc1CN(Cc1ccccc1)Cc1cccn1Cc1ccccc1C | -10% | 1.39
21 | O=c1c(-c2nc(-c3ccc(F)cc3)no2)c[nH]c2ccccc12 | -7% | 1.05
22 | CCCCNCCOc1ccc(Cl)c(Cl)c1 | -18% | 2.36

Row | SMILES | % Inhibition | Z score
23 | Cc1cc(C)n(CCC(=O)N2C[C@H]3C[C@H](C2)[C@H]2CCCC(=O)N2C3)n1 | -2% | 0.48
24 | O=C(NCc1ccccc1)c1cc2n(n1)CCN(Cc1cccc(C(F)(F)F)c1)C2=O | -17% | 1.68
25 | Fc1cc(Br)cc2c(NCCc3nnc4n3CCC4)cc(C(F)(F)F)nc12 | -12% | 1.62
26 | Cc1ccc(C(=O)N(Cc2nn(C)c3c2CN(S(=O)(=O)c2ccccc2F)CC3)c2ccccc2)cc1 | -17% | 1.5
27 | C[C@@H](CNS(=O)(=O)c1cccs1)c1nc2ccccc2o1 | -8% | 0.96
28 | O=C(N[C@H]1CO[C@H]2[C@@H]1OC[C@@H]2Nc1nccc(-c2ccc(-c3ccccc3)cc2)n1)c1ccc(C(F)(F)F)cc1 | 7% | -0.84
29 | CCNCC#CCOc1ccc(C)cc1 | -9% | 0.99
30 | NS(=O)(=O)Cc1cc(Cl)ccc1F | -6% | 0.86
31 | CC[C@H]1OCC[C@@H]1NC(=O)c1ccsn1 | 2% | -0.33
32 | NC(=O)C1CCCCC1NC(=O)CC1(N2CCOCC2)CCCC1 (stereo not given) | 30% | -3.34
33 | CN(Cc1ncc[nH]1)C(=O)c1cccc(-c2cc(N3CCCC3)nc(N)n2)c1 | -2% | 0.39
34 | Cc1nnc(-c2ccccc2/C=C/C2CCCCC2)o1 | -2% | 0.39
35 | Cn1ccnc1NC(=O)c1ccccc1-c1nccn1C | 5% | -0.51
36 | CN(Cc1ccccc1)c1cnn(CC[C@@H](O)c2ccccc2)c(=O)c1 | -4% | 0.71
37 | CC(C)(C)OC(=O)N1C2CCC1CN(c1ccccn1)CC2 (stereo not given) | -6% | 0.79
38 | CCOc1ccc(NC(=O)c2ccc(N3CC4CC(C3)c3cccc(=O)n3C4)c(NC(=O)CCN3CCOCC3)c2)cc1 (stereo not given) | 11% | -1.25
39 | Cc1ccc(C(=O)N[C@H](c2cccnc2)C(C)C)n1C(F)F | -9% | 1.03
40 | O=C(c1ccccc1C(F)(F)F)N1CC2(CCOC2)C1 | 5% | -0.56
41 | N#CCCCS(=O)(=O)Cc1ccc(Br)c(Cl)c1 | -6% | 0.56
42 | Cc1cc2c(N3CCC(N[C@@H](C)c4n[nH]c(=O)[nH]4)CC3)ncnc2s1 | -8% | 1.35
43 | CC(C)(C)OC(=O)N1CC[C@H](NCc2cc[nH]n2)C1(C)C | 7% | -1.32
44 | O=C(NCc1cccc(O)c1)c1cccc(-n2cccn2)n1 | 7% | -0.85

Row | SMILES | % Inhibition | Z score
45 | COc1ccc(NC(=O)[C@H]2CC23CCN(Cc2cccc4ncccc24)CC3)cc1Cl | -15% | 1.66
46 | CCOc1nc(-c2cccs2)n(-c2ccc(NC(=O)CC(C)C)cc2)n1 | -3% | 0.4
47 | COc1cccc(N2CCN(C(=O)c3cn4cc(-c5cccc(Cl)c5)ccc4n3)CC2)c1 | -8% | 1.19
48 | Cn1[nH]c2ncc(Br)cc2c1=O | -5% | 0.99
49 | Cc1nn(C)c2nc(N3CCC[C@H](C#N)C3)sc12 | -7% | 0.74
50 | NC(=NCc1csc2ccccc12)N1CCN(c2nccs2)CC1 | 5% | -0.56
51 | CC(C)(C)CN1C[C@@H](NS(=O)(=O)c2cccs2)CC1=O | -22% | 2.06
52 | Cc1nccc(N2CCOCC3(CC3)C2)c1Cl | -8% | 1.56
53 | Cc1cc(S(=O)(=O)c2ccc3ccccc3c2)n2nc(C)nc2n1 | 35% | -3.96
54 | COCCc1noc(CCc2nc(-c3ccccc3)no2)n1 | -4% | 0.76
55 | O=C1COc2ccc(S(=O)(=O)Oc3ccccc3F)cc2N1 | 6% | -1.07
56 | CC[C@H](C)Oc1cc(CNc2nccnc2C#N)ccn1 | 7% | -0.64
57 | CCc1nc(C)c(-c2c(-c3ccccc3)ncn2Cc2cnc(C)cn2)[nH]1 | 1% | -0.09
58 | COc1cccc(C(=O)N2CCN(C)[C@@H]3CS(=O)(=O)C[C@@H]32)c1O | 1% | -0.08
59 | COc1ccc(C(=O)N[C@@H]2CN(C(=O)NC(C)C)CCC[C@H]2O)cc1 | 15% | -2.32
60 | O=C(O)c1cnc(N2CCC(Cc3ccccc3)CC2)c(NS(=O)(=O)c2ccc(F)c(F)c2)c1 | 4% | -0.34
61 | CN1CCCCC[C@H]1C(=O)N1CCN(c2ccc(OCc3ccccc3)cc2)CC1 | -7% | 1.28
62 | CC(=O)N1CCc2cc(S(=O)(=O)N3CCC(CC(=O)N4CCCCCC4)CC3)ccc21 | -20% | 1.84
63 | CC(C)n1cc(CNCC2CCC3(CC2)OCCO3)cn1 | -9% | 1.17
64 | Cc1cnn(C)c1CN1CCc2ccccc2C1(C)C | -10% | 1.14
65 | CCn1nc(C)cc1C(=O)N1CC[C@@]2(CCCN(CCC3CCCCC3)C2)C1 | 1% | -0.16
66 | O=S(=O)(CC12CCC(CC1)C2)N1CCc2c(ncn2-c2ccccc2)C1 | -14% | 1.53

Row | SMILES | % Inhibition | Z score
67 | COC[C@](C)(CCO)Nc1ncnc2c(C)cccc12 | 29% | -3.32
68 | C[C@]1(c2ccccc2)CCC(=O)N(CCCNc2cccnc2)C1 | -16% | 1.99
69 | Cc1n[nH]c(CN(C)Cc2noc(C(C)C)n2)c1Cl | -16% | 1.54
70 | O=C(NCCc1ccccc1)N1C[C@@H]2C[C@H](NS(=O)(=O)c3cccs3)[C@H]1C2 | 35% | -3.98
71 | O=C([C@@H]1CCCO1)N1CCC(c2cnn(-c3cccc(F)c3)c2)CC1 | -10% | 1.25
72 | COc1cccc(CCC(=O)N2CCNC(=O)[C@@H]2c2ccccc2Cl)c1F | -11% | 1.28
73 | CC(C)(C)CCS(=O)(=O)NC[C@H]1CCN(C2CC2)C1 | -10% | 1.18
74 | Cc1ccccc1CNC(=O)CN1CC[C@](C)(O)[C@H](O)C1 | -12% | 1.51
75 | CC(C)N(C)S(=O)(=O)NCCc1csc(N2CCCC2)n1 | -5% | 0.51
76 | CCc1nc(C(C)NC(C)C(=O)N(C)C)cs1 (stereo not given) | 6% | -0.74
77 | COC1(C(F)(F)F)CN(C(=O)Nc2ncn(C(C)(C)C)n2)C1 | 2% | -0.26
78 | CCOC(=O)[C@H]1CCCN(C2CC(OCC)C2)C1 (stereo not given in full) | -2% | 0.19
79 | CN(Cc1cccnc1)C(=O)N[C@H]1CCC[C@H]1F | -5% | 1.03
80 | CN(C)C(=O)[C@@]12CN(CC3CCCCC3)C[C@@H]1CN(C(=O)c1ccccc1)C2 | -7% | 0.97
81 | CC(C)[C@H](N)C(=O)N1CCN(CC2CCCC2)C(=O)C1 | -10% | 1.03
82 | CC(C)CN(CC1CN(Cc2ccc(Cl)cc2)CC1c1ccccc1)C(=O)c1ccccc1F (stereo not given) | -5% | 0.97
83 | CCO[C@@H](C)c1ncc(C(=O)NCCn2cnnn2)s1 | -1% | 0.17
84 | Cc1cc(CN2CCC[C@@H]2CF)n(C)n1 | 4% | -0.44
85 | C[C@@]1(C(=O)NCCN2CCOCC2)COCc2nnc(-c3ccccc3)n21 | -7% | 0.82
